Data as given in the supplement of paper PMC11417369.
The other results are listed elsewhere or left out.

System: PfSIP2 AP2 domain 1 (GST-tagged)
Assay: gcPBM binding intensity (ln(normalized median fluorescence intensity)); higher = stronger DNA binding
Summary of the method: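 GST-tagged P. falciparum DNA-binding domains produced in E. coli were incubated for 1 h on an Agilent 4 × 180k array of primer-extended double-stranded 36-bp intergenic genomic probes with negative controls. Binding intensity is the highest Masliner-normalised natural-log median intensity across replicate spots of either probe orientation, with bound protein detected by Alexa488 anti-GST antibody at 488 nm.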

Sequence	gcPBM binding intensity (ln)
ATATAAAATAAAAAAAAAAAAAAAAAAAAAAAAAAA [CACACA_negctrl_site1234]	6.92
TTAATGTTTGAAAGAGTGCACATAACAAAAAAAAAA [GTGCAC_site9623]	11.1
TTTTTGTATCCTTTTAATATTAAATAAAAGGAATGT [CACACA_negctrl_site1468]	7.02
TAATTAAAAAATGAATAAATGAATAAATAAATAAAT [CACACA_negctrl_site838]	6.75
CAATAAATAATAAATACATGCAAGTATGAAGATATA [TGCATGCA_site859]	6.73
TGTTTGATGGTACACGTACACACCTTGCAAATATTT [CACACA_site888]	7.36
AATATAAAATAGAAAAATGAAAAAAAAAAAAAGGGT [CACACA_negctrl_site1263]	7.54
TATATATATTTTAACACACACATATATATATTTATA [CACACA_site2765]	7.28
AATAAGAATTAAAAATGTACAAAAAAATGTATTTAT [XGTACX_site8005]	6.89
AAGTATAAAATATTTTGTACTTAAAAAATTATATGG [XGTACX_site2180]	7.07
CATGTTATATATATATGTACTAAAAATATAATATAA [XGTACX_site1978]	7.03
AGTGGGATTTTTAATTGTACATAAATAATATCATAA [XGTACX_site4163]	6.92
TTTTTTTTTTTTGGTAGTACATAAATATTTTATGGA [XGTACX_site6851]	6.96
TTTGCAACATATAAAAGTACAAATAATATATTTATT [XGTACX_site890]	7.01
TTTATTATATGCACACGTACATATAATATATATATA [XGTACX_site4108]	8.68
AGCAGTTTTTTTTTTTTTTTTTTTTTTATTAAAAGC [XGTACX_negctrl_site392]	6.87
ATAATAAATCATCATATTACATTTATCTTTGTTGGA [CACACA_negctrl_site849]	7.04
TACTTATTTTTATAGCATTTCACGGAGGTAGTAATA [CACACA_negctrl_site468]	7.07
AACTGTAATTTTATACGTACATAAATAATATTATAT [XGTACX_site4277]	7.28
AACATAATATCATATACACACAAAAATATTGAAATA [CACACA_site2160]	6.9
ATAATACCCATTATCTTACAACAAAATGCAAACAAA [CACACA_negctrl_site1037]	7.18
TTATATAACTTTTCTAGTACTTGTATAAATTCCTAC [XGTACX_site3685]	6.93

Sequence	gcPBM binding intensity (ln)
AAAAAAAAAGAAAAACGTACGTTTATTTAATATATA [XGTACX_site4018]	6.8
AAGAACATATTATATACATGCATAATTCGATAGATT [TGCATGCA_site882]	6.86
AAAATTAGATTATGCACACACACTTAAAAATAATAA [CACACA_site1975]	8.5
TTAAAATATGTAGCTACACACACATAAACAAAATAA [CACACA_site8244]	7.1
TAATTATAATAATAACGTACATATATAAAATGGTGA [XGTACX_site8434]	7.21
TTTTTTTTTCTGAATTTATAATTCAAAAATATATAT [CACACA_negctrl_site300]	6.83
TGTAGTCTGGAGAAAAGTACACAGTATCTGGTAGCT [XGTACX_site2012]	6.95
TATATATATATATAGGTGCTATAATTTATATACACA	9.36
TTTTATTTTTTCTATACATGCATGTCCAATTTTCTT [TGCATGCA_site304]	7.06
TTATGGTATAAAAAAATACACACTTATATATATTCT [CACACA_site488]	6.83
AAAAAAAAAAAAAACACACATACACGCCCACCCATA [CACACA_site3391]	7.48
GTTTTTTTATAAAATTTTTATATAATTCTTTTATAA [CACACA_negctrl_site1605]	6.99
ATATATAAGAACATATATATTGGAAATATTGAATTT [XGTACX_negctrl_site121]	6.93
TAATAATAAAAAATACGTACATATTATTTATATATG [XGTACX_site853]	7.26
CATTTTATTCTATATGCATGTTAAAAAATGTGTTGA [TGCATGCA_site128]	7.12
AATAAAAATATTATATGTACATATTTTAATATATAT [XGTACX_site1259]	7
AAAACTATATTAATGTGTACACATCAAAATATTAAT [XGTACX_site6767]	7.42
CAAAATTATCAGAATCGTACATTTTTAACATATAAT [XGTACX_site7909]	6.83
TTACAAAACACTTATACACACATATATATATATATA [CACACA_site2716]	9.45
TAATATATTAAAAATAGTACATAAGAAAAATAAGTA [XGTACX_site7957]	7.11
ATATTTATTTTAATTTTTCTATATAAACTATTATGA [CACACA_negctrl_site739]	6.91
AGGAAGGAAATAAATCAACACACATATATTATATAT [CACACA_site8678]	7.04

Sequence	gcPBM binding intensity (ln)
TATATATATTATATATGTACATATTGTATATTTTTG [XGTACX_site4564]	7.67
ATTATAAATATCAGTGCACACATTTCTACGCAAAGT [CACACA_site4420]	10.4
TATGTAAAATGTGTTTGTACTTATTTATTATATAAA [XGTACX_site2816]	6.83
AAGGAGCCTATGAACACACACATGTACAGATATTAA [CACACA_site6107]	7
TGTATTTATAGACACACACACTTTCTTTTTTTAAGA [CACACA_site7010]	7.04
AACAATTAGAACTTTGCACACTTCTATATATTTTGT [CACACA_site674]	7.13
TACATATATAAAAAAACACACACATATATATATATA [CACACA_site8315]	9.02
TGTATAATAAGGAAGAGTACAAGTAAATACACACAT [XGTACX_site2084]	7.07
TATATATATAACATTGTACACACAAAGAAATAATAT [CACACA_site8998]	8.18
ATCGGTATATTATTACATGAATAAACTTACACACAC [TGCATGCA_negctrl_site21]	8.04
TATATATAAAATGTATGTACATATTTATTTATATAG [XGTACX_site657]	6.87
AAGTGAAATAAAATATGTACATATATGTATATATAA [XGTACX_site4473]	6.97
TTTTTTCTTCGTGTATTAAGTCACAATAGGAAAAAA [GTGCAC_negctrl_site644]	7.09
AAAAAAAAAGAATGTGAACACACACCGTGAATATAA [CACACA_site8342]	6.62
ATGGAAATAAAAAAAAAAAAAAAAAAAAATATATAT [GTGCAC_negctrl_site67]	7.18
TAGCCCACATTTAATGGTACAGTGAGTATATATATG [XGTACX_site8044]	6.99
TACATAAAATACCATGCATGCTAGTAAAAAAAAAAA [TGCATGCA_site650]	6.8
TAATATATTTATAGAGCATGCAACGTAATATTATTA [TGCATGCA_site863]	7.12
AAAATGCATTTGATGTGTACGCATTATAAAGAACAA [XGTACX_site4203]	7.31
CAAATAGCTAGCTGTGCACACAAACATATTTTCCAA [CACACA_site879]	8.69
CACAAACAAAGACACACACACACACGCACAAAAATG [CACACA_site7193]	7.25
CATATATACTCATACACACACACACCGACACAGACA [CACACA_site5026]	7.33

Sequence	gcPBM binding intensity (ln)
ATGATATGGATAAATACACACAATATAATAATGTCT [CACACA_site1433]	6.99
TATGATGAGATAACAAAAGTTGTACTTTTTTTTTTT [CACACA_negctrl_site1172]	6.99
ATATTTTTTAGGGTCACACATACTTATTATATAAAT [CACACA_site4926]	7.11
AATATTTAACACCTTATACACACTTTCTTCCTTTTT [CACACA_site785]	6.9
AAAGCACGCAAGAATACACACAAATATTATAAAAAA [CACACA_site6206]	6.94
ATCCCAGTAATATATAGTACATAACTATAAGAGAAT [XGTACX_site6909]	7.09
TAAAAAATTATAAAATGTACATAAAAAAAAAAAAAA [XGTACX_site3376]	7.13
CTGAAGAAACTACAACGTACAAAATATGTATATATT [XGTACX_site3779]	6.79
AGGAAAACAAAAGATGCATGCTAATTTTCCTCGCGT [TGCATGCA_site627]	6.59
AAAATTAATAAATGAGAAAAAAGGATGAATAATGAG [CACACA_negctrl_site1614]	7.43
AGAAAAAAAATGTATACACACAAATATAAAGAAGGA [CACACA_site3806]	7.41
TTTATTAATTAAACCATACACACATAATTTTTTTAT [CACACA_site842]	7.16
AAACGTGCGTATATGTGTACGCATATATATATATAT [XGTACX_site5252]	9.79
TATATATATATATATTGTACAAAGATTAATATATAA [XGTACX_site8433]	9.36
TATTTTAATAAGAATAAATGAAATGAAATGAAATAT [CACACA_negctrl_site823]	6.99
ACTTAATTTTTTTATTGTACATGTAAATGAGGGAAA [XGTACX_site6305]	7.48
ACATCCTATAAATAGAGTACGTAAATTATAATACAC [XGTACX_site5338]	7.24
ATGAATTTTTCTCTACAAAAGGATATAATAAAAATA [XGTACX_negctrl_site461]	6.9
TAGTGTGCCAAATTAGCACACACATATATACATGAA [CACACA_site8910]	7.01
TTTTCTAATTAATATTGTACATAAATGTATATATAT [XGTACX_site4749]	7.42
CTTCTGGACAGGAATGCACACATTTTTTTTTCTTTT [CACACA_site1807]	7
